{
  "source": "PubChem BioAssay AID1460",
  "about": "(National Center for Advancing Translational Sciences (NCATS), 2008)",
  "note": "The campaign covered roughly 270,000 compounds. About 5,800 (2.1%) were called active. This list was built around the results that the source calls inconclusive (neither active nor inactive); the mix of calls is not that of the screen. Calls come from the whole dose curve; as a rule, active = well fitted inhibition curve with a large enough effect; inconclusive = small, poorly fitted or top-dose-only effect; inactive = flat fitted curve, though single readings scatter. A potency beside an inconclusive call is a rough fit, not a confirmed value. % is set by controls: 0 for no effect and ±100 for the full control effect; potency is the fitted concentration of half-maximal effect; tags give direction and shape of the fitted curve.",
  "data": [
    {"target": "Microtubule-associated protein tau (Homo sapiens) (UniProt P10636)", "sequence (P10636 whole entry, looked up)": "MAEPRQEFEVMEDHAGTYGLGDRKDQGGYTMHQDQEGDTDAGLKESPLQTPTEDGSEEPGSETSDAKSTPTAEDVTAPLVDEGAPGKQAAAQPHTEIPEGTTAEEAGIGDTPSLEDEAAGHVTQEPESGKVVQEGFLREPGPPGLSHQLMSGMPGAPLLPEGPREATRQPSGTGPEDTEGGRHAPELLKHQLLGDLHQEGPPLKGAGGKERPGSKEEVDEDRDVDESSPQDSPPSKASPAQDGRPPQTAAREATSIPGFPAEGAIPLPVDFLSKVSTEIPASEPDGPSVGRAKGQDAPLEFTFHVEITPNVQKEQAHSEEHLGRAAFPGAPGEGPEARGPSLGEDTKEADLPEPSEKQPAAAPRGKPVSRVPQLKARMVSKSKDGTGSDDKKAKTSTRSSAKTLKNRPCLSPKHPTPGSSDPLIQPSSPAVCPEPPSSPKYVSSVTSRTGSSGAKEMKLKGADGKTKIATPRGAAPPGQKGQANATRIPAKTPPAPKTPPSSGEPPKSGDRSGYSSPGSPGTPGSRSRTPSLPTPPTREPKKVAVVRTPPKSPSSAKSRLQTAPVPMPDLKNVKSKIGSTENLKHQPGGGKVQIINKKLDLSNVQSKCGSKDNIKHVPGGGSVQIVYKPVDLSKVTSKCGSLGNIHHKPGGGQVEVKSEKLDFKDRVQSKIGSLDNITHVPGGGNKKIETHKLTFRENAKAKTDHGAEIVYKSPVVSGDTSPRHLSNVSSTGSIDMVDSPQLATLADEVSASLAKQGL", "experiment": "qHTS for Inhibitors of Tau Fibril Formation, Thioflavin T Binding; note: nearly all actives have a fitted effect of over 55% in size", "details": "recombinant tau K18 P301L, heparin-induced fibrillization, ThT fluorescence; series mostly up to 57.4 µM; activity, negative = inhibition: at the top concentration", "method_in_brief": "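ThT emission at 510 nm, taken 1 hr after adding 30 uM dye, quantifies aggregates formed when 20 uM heparin acts on human tau K18 P301L for 6 hr at 37 C.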", "values": [
      {"compound": "CC(C)c1ccc(NC(=O)c2ccc(F)c(S(=O)(=O)N3CCc4ccccc4C3)c2)cc1", "activity, negative = inhibition": "inactive: -5.6%"},
      {"compound": "Cc1nc(C)c(C(=O)Nc2ccccc2-c2ccccc2)o1", "Potency": "inconclusive: 10 µM [inhibitor, partial curve]"},
      {"compound": "CCOc1ccc(NC(=O)CC2C(=O)N(c3ccc(C)cc3)C(=O)N2CCC2=CCCCC2)cc1", "note": "(stereo unspecified)", "activity, negative = inhibition": "inactive: -2.97%"},
      {"compound": "CN(C)c1ccc(/C=C(\\C#N)C(=O)Nc2nc3c(s2)CCN(Cc2ccccc2)C3)cc1", "activity, negative = inhibition": "inactive: 5.91%"},
      {"compound": "Cc1cnc(C(=O)OCC(=O)N2CCc3ccccc32)cn1", "Potency": "inconclusive: 7.08 µM [inhibitor, partial curve]"},
      {"compound": "Cc1c(NC(=O)CN2C(=O)NC3(CCCCC3)C2=O)c(=O)n(-c2ccccc2)n1C", "activity, negative = inhibition": "inactive: -2.04%"},
      {"compound": "O=C(Nc1ccc2c(c1)OCO2)c1cccc2c1C(=O)N(Cc1cccnc1)C2", "Potency": "inconclusive: 31.6 µM [inhibitor, partial curve]"},
      {"compound": "Cc1ccc(NC(=O)c2c(C)nc(Nc3nc4ccccc4o3)nc2C)cc1", "Potency": "inconclusive: 15.8 µM [inhibitor, partial curve]"},
      {"compound": "Cc1nn(-c2ccccc2)c(C)c1NC(=O)COc1ccc(Br)cc1Cl", "Potency": "inconclusive: 15.8 µM [inhibitor, partial curve]"},
      {"compound": "Cc1cc(C)nc(SCc2ccc(C(=O)NN=C3CCCC3)cc2)n1", "Potency": "inconclusive: 15.8 µM [inhibitor, partial curve]"},
      {"compound": "CCc1ccc(NC(=O)N2CCN(c3ccc(F)cc3)CC2)cc1", "Potency": "inconclusive: 7.08 µM [inhibitor, full curve, poor fit]"},
      {"compound": "Clc1ccc(CSc2nncn2-c2ccccn2)cc1", "activity, negative = inhibition": "inactive: -8.08%"},
      {"compound": "O=C1/C(=C\\Nc2ccc(Cl)cc2)CCN1c1ncccn1", "Potency": "inconclusive: 25.1 µM [inhibitor, partial curve]"},
      {"compound": "CCOc1ccccc1NC(=O)COC(=O)c1cccc(-c2ccc(OC(C)=O)cc2)c1", "Potency": "inconclusive: 7.94 µM [inhibitor, full curve]"},
      {"compound": "C/C(CC(=O)Nc1cc(C)ccn1)=N\\NC(=O)c1ccc(C)cc1", "Potency": "inconclusive: 20 µM [inhibitor, single point]"},
      {"compound": "O=C(Nc1nc(-c2ccccc2)cs1)C1CCCCN1S(=O)(=O)c1ccccc1", "note": "(stereo unspecified)", "Potency": "inconclusive: 39.8 µM [inhibitor, single point]"},
      {"compound": "COc1ccc2oc(=O)c(C(=O)Nc3ccc(C(=O)O)cc3)cc2c1", "Potency": "inconclusive: 15.8 µM [inhibitor, partial curve]"},
      {"compound": "CC(Oc1ccc(Cl)cc1Cl)C(=O)NCCCCc1ccccc1", "note": "(stereo unspecified)", "Potency": "inconclusive: 28.2 µM [inhibitor, single point]"},
      {"compound": "COc1ccc(C(=O)Nc2ccc(N3CCN(C(C)=O)CC3)cc2)cc1[N+](=O)[O-]", "Potency": "inconclusive: 10 µM [inhibitor, partial curve]"},
      {"compound": "O=C(N/N=C/c1c[nH]c2ccccc12)c1ccc2c(c1)OCCO2", "Potency": "inconclusive: 14.1 µM [inhibitor, partial curve]"},
      {"compound": "FC(F)(F)Oc1ccc2c(c1)NC(c1ccncc1)=NC(c1cccs1)=N2", "Potency": "inconclusive: 15.8 µM [inhibitor, partial curve, poor fit]"},
      {"compound": "CCOC(=O)/C(C#N)=C\\c1c(OCC)n(CC)c2ccccc12", "Potency": "inconclusive: 20 µM [inhibitor, partial curve]"},
      {"compound": "NC(=O)c1c(NC(=O)c2cnccn2)sc2c1CCCC2", "Potency": "inconclusive: 8.91 µM [inhibitor, partial curve]"},
      {"compound": "Cc1ccc(NC(=O)c2cc([N+](=O)[O-])ccc2Cl)c(O)c1", "Potency": "inconclusive: 39.8 µM [inhibitor, single point]"},
      {"compound": "Cc1nc(-c2ccccc2)sc1CCNC(=O)C(=O)Nc1ccc2c(c1)OCO2", "Potency": "inconclusive: 1.41 µM [inhibitor, full curve]"},
      {"compound": "OC[C@@H]1[C@@H](c2ccc(Cl)cc2)C(c2ccc(F)cc2)=NN1c1ccccc1", "activity, negative = inhibition": "inactive: -23.4% [at 81.4 µM]"},
      {"compound": "O=C(CSc1ncn[nH]1)Nc1ccc(Cl)c(S(=O)(=O)N2CCOCC2)c1", "activity, negative = inhibition": "inactive: -0.452%"},
      {"compound": "CC(=O)c1sc(NC(=O)CCCOc2ccc(Cl)cc2)nc1C", "Potency": "inconclusive: 4.47 µM [inhibitor, full curve]"},
      {"compound": "COc1ccc(-c2c3c(=O)n(C)c(=O)n(C)c3cn2C2CCCCC2)cc1", "Potency": "inconclusive: 39.8 µM [inhibitor, single point]"},
      {"compound": "CCOC(=O)c1cccc(Nc2cc(-c3ccccc3)ncn2)c1", "Potency": "inconclusive: 39.8 µM [activator, single point]"},
      {"compound": "Cc1ccc(/C=C/C(=O)Nc2ccc([N+](=O)[O-])c(NC(=O)/C=C/c3ccc(C)o3)c2)o1", "Potency": "active: 12.6 µM"},
      {"compound": "Oc1ccc(NCc2ccccc2OCc2ccccc2F)cc1", "Potency": "active: 15.8 µM"},
      {"compound": "Cc1ccc(OCCCCn2cnc3ccccc32)c(C)c1", "Potency": "inconclusive: 5.62 µM [inhibitor, full curve]"},
      {"compound": "CSCc1nc2sc(C(=O)Nc3nc(C)cs3)c(C)c2c(=O)[nH]1", "Potency": "inconclusive: 12.6 µM [inhibitor, partial curve]"},
      {"compound": "O=C(O)c1ccc(-n2c(O)c(C=C3N=c4ccccc4=N3)sc2=S)cc1", "Potency": "active: 17.8 µM"},
      {"compound": "Cc1cc(C(F)(F)F)nn1Cc1ccc(C(=O)NCc2ccco2)o1", "Potency": "inconclusive: 25.1 µM [inhibitor, single point]"},
      {"compound": "Cc1ccc(NC(=O)C(C)n2nnc3sc4c(c3c2=O)CCCC4)cc1Cl", "note": "(stereo unspecified)", "activity, negative = inhibition": "inactive: 4.9%"},
      {"compound": "CC(C)(C)N1C(=O)Cc2c1nc(N)c1c(N)nc(N3CCCCC3CO)c(C#N)c21", "note": "(stereo unspecified)", "Potency": "inconclusive: 17.8 µM [inhibitor, single point]"},
      {"compound": "CC1CN(C)C(C)C/C1=N/Oc1ccccc1[N+](=O)[O-]", "note": "(stereo unspecified)", "Potency": "inconclusive: 25.1 µM [inhibitor, partial curve]"},
      {"compound": "Cc1nc2ccccn2c1C(=O)CSc1cccc(Cl)c1", "Potency": "inconclusive: 25.1 µM [inhibitor, single point]"},
      {"compound": "CCOC(=O)c1ccc(NC(=S)N2CCCC(C(=O)OCC)C2)cc1", "note": "(stereo unspecified)", "activity, negative = inhibition": "inactive: -9.02%"},
      {"compound": "COC1C=CO[C@@]2(C)Oc3c(C)c(O)c4c(O)c(c5c(nc6cc(C)ccn65)c4c3C2=O)NC(=O)/C(C)=C\\C=CC(C)C(O)[C@@H](C)C(O)C(C)[C@@H](OC(C)=O)C1C", "note": "(stereo partly specified)", "Potency": "inconclusive: 14.1 µM [inhibitor, partial curve, poor fit]"},
      {"compound": "Cn1cc(/C=C/C(=O)c2ccccc2)c2ccccc21", "Potency": "inconclusive: 11.2 µM [inhibitor, partial curve]"},
      {"compound": "Cc1cccc(C(=O)NCC(=O)OCc2cc(=O)n3nc(C4CCCCC4)sc3n2)c1", "Potency": "inconclusive: 5.01 µM [inhibitor, partial curve, poor fit]"},
      {"compound": "CCOC(=O)C1(C)/C(=N/Nc2ccc(S(N)(=O)=O)cc2)C(=O)C(=O)N1c1ccccc1", "note": "(stereo unspecified)", "Potency": "active: 11.2 µM"},
      {"compound": "O=C(/C=C/c1cccs1)Nc1ccc(N2CCOCC2)c(S(=O)(=O)Nc2ccccc2Cl)c1", "activity, negative = inhibition": "inactive: -4.63%"},
      {"compound": "O=C(Nc1ccc(N2CCCCC2)c(Cl)c1)c1cccnc1", "Potency": "inconclusive: 12.6 µM [inhibitor, partial curve]"},
      {"compound": "Cc1ccc(N(C)C(=O)C2CCN(S(=O)(=O)c3c(C)noc3/C=C/c3c(C)cc(C)cc3C)CC2)cc1", "activity, negative = inhibition": "inactive: -11.4%"},
      {"compound": "Cc1ccc(N=C(NOCc2ccc(Cl)cc2Cl)c2nonc2N)c(C)c1", "Potency": "inconclusive: 31.6 µM [inhibitor, partial curve]"},
      {"compound": "Cc1ccc(NC(=O)C2CCCN(S(=O)(=O)c3cn(C(C)C)cn3)C2)c(C)c1", "note": "(stereo unspecified)", "activity, negative = inhibition": "inactive: 3.63%"},
      {"compound": "COc1ccccc1-c1noc(CCC(=O)Nc2ccc(C)cc2C)n1", "activity, negative = inhibition": "inactive: -8.44%"},
      {"compound": "Cc1cc(=O)[nH]c(SCc2cccc(Br)c2)n1", "activity, negative = inhibition": "inactive: -3.24%"},
      {"compound": "Cc1cc(C)nc(N/N=C/c2ccccc2)n1", "activity, negative = inhibition": "inactive: -14.9%"},
      {"compound": "CCOC(=O)c1ccc(S(=O)(=O)n2c(CN3CCCCC3)nc3ccccc32)cc1", "Potency": "inconclusive: 28.2 µM [inhibitor, partial curve]"},
      {"compound": "CCOC(=O)CCCCC(=O)c1[nH]c(=O)[nH]c1CSc1nc2ccccc2[nH]1", "Potency": "inconclusive: 28.2 µM [inhibitor, partial curve, poor fit]"},
      {"compound": "CCOC(=O)c1ccc(-c2cccc(-c3cc(=O)oc4cc(OC)cc(OC)c34)c2)cc1", "Potency": "inconclusive: 20 µM [inhibitor, partial curve]"},
      {"compound": "CC1CCC(Nc2nc3c(-c4cccc(C(F)(F)F)c4)nnn3c3ccccc23)CC1", "note": "(stereo unspecified)", "Potency": "inconclusive: 31.6 µM [activator, single point]"},
      {"compound": "O=C(Nc1ccc2c(c1)OCO2)c1ccc2c(c1)OCO2", "Potency": "inconclusive: 39.8 µM [inhibitor, single point]"},
      {"compound": "C/C=C/c1cc(CN2CCN(c3ccc(OC)cc3)CC2)c(O)c(OC)c1", "Potency": "inconclusive: 39.8 µM [inhibitor, single point]"},
      {"compound": "CCCOc1ccc(OCCSc2nnc(N)s2)cc1", "Potency": "inconclusive: 14.1 µM [inhibitor, partial curve]"},
      {"compound": "CCOC(=O)N1CCN(c2c(NCCc3ccc(C)cc3)c(=O)c2=O)CC1", "activity, negative = inhibition": "inactive: -3%"},
      {"compound": "CCCOc1ccc(CNC(=O)c2ccc(-n3c(C)cc4c3CCC(C)C4)cc2)cc1", "note": "(stereo unspecified)", "Potency": "inconclusive: 39.8 µM [inhibitor, single point]"},
      {"compound": "CCn1nc(C)c(C(=O)Nc2cc(Oc3ccc(Cl)cc3)cc([N+](=O)[O-])c2)c1C", "Potency": "inconclusive: 25.1 µM [inhibitor, partial curve, poor fit]"},
      {"compound": "N/C(=N\\OC(=O)COc1ccc2ccccc2c1)c1cccnc1", "Potency": "inconclusive: 3.55 µM [inhibitor, full curve]"},
      {"compound": "COC(=O)N1[C@H](C)C=C[C@]1(Cc1ccccc1)C(=O)NCc1ccc(C)o1", "Potency": "inconclusive: 35.5 µM [inhibitor, single point]"},
      {"compound": "O=C(CC1Nc2ccccc2NC1=O)Nc1ccccc1NC(=O)CC1Nc2ccccc2NC1=O", "note": "(stereo unspecified)", "Potency": "inconclusive: 28.2 µM [inhibitor, single point]"}
    ]}
  ]
}
